Several values for one entry are separate records, joined by “and”; a condition that tells them apart may be missing. Equal entries are not always repeated.
How the values were obtained:
[1] = tested on: MCF7 derived xenograft; conditions: mouse, in vivo
[2] = tested on: SKOV-3 cells; assay: Growth inhibition of human cancer cell lines, SKOV-3; assay type: cell-based; conditions: SKOV-3, moderate MUC1 expressing
Method: (§1) Human cancer cell lines (such as Colo357, HT29, SKOV3, BxPC3 and T47D) were seeded at 5000 cells/well in a 96-well plate flat bottom clear plate and allowed to adhere overnight. Next day, antibody/ADCs were added to these cells at the mentioned concentration or at a mentioned concentration range. Post 5-7 days of treatment, 20 μl of presto blue dye was added to wells and absorbance was recorded at 570 nm (600 nm reference wavelength). Percent survival was calculated against wells containing untreated cells in complete media and IC50 was calculated in Graphpad Prism.

[3] = tested on: COLO-357 pancreatic carcinoma cells; assay: Growth inhibition of human cancer cell lines, COLO-357
[4] = molecular target: purified Cathepsin B enzyme (Homo sapiens, UniProt P07858); assay: Stability in purified Cathepsin B enzyme assay; assay type: in vitro ADME; conditions: 6 hours
[5] = tested on: SKOV3 derived xenograft; conditions: mouse, in vivo
[6] = Stability in mouse plasma (MMAE release); assay type: in vitro ADME; conditions: 48 hours
Method: (§2) At the end of 48 hours, the MMAE released in human plasma was <5 nM, while in mouse plasma it was 214 nM corresponding to <0.1% and 4.5% MMAE release in human and mouse plasma, respectively.

[7] = tested on: HT-29 cells; assay: Growth inhibition of human cancer cell lines, HT-29; assay type: cell-based; conditions: HT-29, no MUC1 expressing
Method: as §1

[8] = molecular target: T1, MUC1-SEA on COLO-357 cells (Homo sapiens, UniProt P15941); assay: Dose dependent binding by flow cytometry on COLO357 cell line
T1 construct: endogenous in cells; host or cells: SKOV3, COLO357, HT29 (human cancer cell lines)

[9] = Single dose pharmacokinetics, COLO357 tumor bearing mouse, IV; assay type: in vivo
Method: The objective of this study was to evaluate serum, tumor and liver pharmacokinetics of TAB, CAB and uMMAE following 3 mg/kg single IV administration of M5LM4-ADC and pharmacokinetics of MMAE following 0.06 mg/kg single IV administration of MMAE alone in a COLO357 tumor bearing mouse model.
The blood samples were collected from the mouse at 0.083, 0.5, 1, 2, 4, 8, 24, 48, 72, 96, 168 and 336 hours post-dose (n=3 mice/time point; sparse sampling design) through retro-orbital plexuses and serum was immediately harvested. At 24, 48, 72, 96, 168 and 336 hour time-points, the tumor and liver were collected. Analysis of total antibody (TAB) and conjugated antibody (CAB) was done by a fit for purpose ELISA based method and analysis of free payload (MMAE) was done by a fit for purpose LC-MS/MS based method. Pharmacokinetic analysis was performed by the non-compartmental analysis tool of Phoenix WinNonlin® software.

[10] = Single dose pharmacokinetics, SKOV3 tumor bearing mouse, IV 3 mg/kg; assay type: in vivo; conditions: 3 mg/kg IV
[11] = tested on: BxPC3 pancreatic carcinoma cells; assay: Growth inhibition of human cancer cell lines, BxPC3
[12] = tested on: Detroit 562 derived xenograft; conditions: mouse, in vivo
[13] = tested on: COLO 357 derived xenograft; conditions: mouse, in vivo
[14] = Stability in human plasma (MMAE release); assay type: in vitro ADME; conditions: 48 hours
Method: as §2

[15] = 5000 nM MMAE equivalent, 37° C.
[16] = CAB, HM5LM4-ADC 3 mg/kg IV, liver
[17] = CAB, HM5LM4-ADC 3 mg/kg IV, serum
[18] = CAB, HM5LM4-ADC 3 mg/kg IV, tumor
[19] = TAB, HM5LM4-ADC 3 mg/kg IV, liver
[20] = TAB, HM5LM4-ADC 3 mg/kg IV, serum
[21] = TAB, HM5LM4-ADC 3 mg/kg IV, tumor
[22] = single IV HM5LM4-ADC, COLO357 tumor bearing mice
[23] = uMMAE, HM5LM4-ADC 3 mg/kg IV, liver
[24] = uMMAE, HM5LM4-ADC 3 mg/kg IV, serum
[25] = uMMAE, HM5LM4-ADC 3 mg/kg IV, tumor

T1 sequence (P15941 24-1255): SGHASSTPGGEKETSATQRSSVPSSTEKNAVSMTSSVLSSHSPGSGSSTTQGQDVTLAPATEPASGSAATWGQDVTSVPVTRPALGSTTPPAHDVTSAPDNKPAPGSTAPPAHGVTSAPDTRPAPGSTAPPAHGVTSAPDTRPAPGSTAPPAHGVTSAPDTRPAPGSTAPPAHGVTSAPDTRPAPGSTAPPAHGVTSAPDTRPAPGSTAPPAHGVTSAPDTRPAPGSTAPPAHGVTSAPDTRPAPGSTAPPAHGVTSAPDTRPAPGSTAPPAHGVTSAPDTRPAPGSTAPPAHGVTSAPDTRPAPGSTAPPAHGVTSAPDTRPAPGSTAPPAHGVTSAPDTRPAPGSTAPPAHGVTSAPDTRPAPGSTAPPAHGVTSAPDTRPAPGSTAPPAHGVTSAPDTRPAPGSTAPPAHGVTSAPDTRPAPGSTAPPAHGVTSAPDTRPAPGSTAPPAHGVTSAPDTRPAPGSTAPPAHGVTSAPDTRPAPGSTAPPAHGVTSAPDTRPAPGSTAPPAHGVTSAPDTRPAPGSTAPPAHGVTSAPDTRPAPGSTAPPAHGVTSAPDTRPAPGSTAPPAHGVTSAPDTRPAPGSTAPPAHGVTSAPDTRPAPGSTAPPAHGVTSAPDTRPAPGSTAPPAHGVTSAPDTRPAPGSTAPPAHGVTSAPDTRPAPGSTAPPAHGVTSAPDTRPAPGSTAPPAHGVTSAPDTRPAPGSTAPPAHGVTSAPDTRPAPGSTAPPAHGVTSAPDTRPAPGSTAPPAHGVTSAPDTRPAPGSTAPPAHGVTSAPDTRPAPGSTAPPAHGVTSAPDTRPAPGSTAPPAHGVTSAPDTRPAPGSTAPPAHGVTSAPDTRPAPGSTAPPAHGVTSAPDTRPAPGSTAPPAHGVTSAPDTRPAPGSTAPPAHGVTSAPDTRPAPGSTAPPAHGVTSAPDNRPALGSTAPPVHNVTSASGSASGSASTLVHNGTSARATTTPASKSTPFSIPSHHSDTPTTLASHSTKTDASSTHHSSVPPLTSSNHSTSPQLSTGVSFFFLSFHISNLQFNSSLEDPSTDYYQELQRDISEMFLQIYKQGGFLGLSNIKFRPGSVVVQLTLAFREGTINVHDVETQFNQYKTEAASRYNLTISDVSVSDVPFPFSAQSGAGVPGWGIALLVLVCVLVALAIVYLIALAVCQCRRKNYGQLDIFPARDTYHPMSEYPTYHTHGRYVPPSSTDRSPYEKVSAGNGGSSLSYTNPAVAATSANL

B1: HM5LM4-ADC: humanized IgG anti-MUC1-SEA mAb HM5-LM4 conjugated to MC-Val-Cit-PABC-MMAE (conjugate)
heavy: EIQLVQSGAEVKKPGSSVKVSCKVTGHSITRGSSWHWMRQAPGQGLEWIGYIHYGGGTSYNPSLKSRITITRDTSTNTFYMELSSLRSEDTAFYFCARYSYDITYRWFFDVWGQGTLVTVSSASTKGPSVFPLAPSSKSTSGGTAALGCLVKDYFPEPVTVSWNSGALTSGVHTFPAVLQSSGLYSLSSVVTVPSSSLGTQTYICNVNHKPSNTKVDKRV[gap - human IgG1 Fc]
light: DIQMTQSPSTLSASVGDRVTITCRASQNIGTSIHWYQQKPGKAPKLLIKYASESISGVPSRFSGSGSGTEFTLTISSLQPDDFATYYCQQNNNWPLTFGQGTKVEIKRTVAAPSVFIFPPSDEQLKSGTASVVCLLNNFYPREAKVQWKVDNALQSGNSQESVTEQDSKDSTYSLSSTLTLSKADYEKHKVYACEVTHQGLSSPVTKSFNRGEC
modifications: non-natural residues
notes: humanized IgG anti-MUC1-SEA mAb HM5-LM4 conjugated to MC-Val-Cit-PABC-MMAE
- growth of MCF7 xenografts (in words) [1]: completely inhibited growth
- tumor regression [1]: 12±20% and 16±16%
- cytotoxic effect / growth inhibition (in words) [2]: no cytotoxic effect
- cytotoxic effect / growth inhibition (in words) ([3]; COLO-357, high MUC1-SEA expressing): observed
- IC50 ([3]; read-out: Equivalent MMAE IC50, COLO-357, ADC expressed as equivalent MMAE): 1.01 nM
- MMAE released [4, 15]: 2800 nM
- MMAE release [4]: 56%
- tolerability (in words) [5]: tolerated well
- MMAE released [6, 15]: 214 nM
- MMAE release [6]: 4.5%
- cytotoxic effect / growth inhibition (in words) [7]: no cytotoxic effect
- binding strength compared to unconjugated parent antibody [8]: similar
- AUC0-336 [9, 16]: 0.228 µM·h
- Cmax [9, 16]: 2.6 nM
- T1/2 [9, 16]: 59 h
- AUC0-24 [9, 17]: 4.862 µM·h
- AUC0-336 [9, 17]: 9.196 µM·h
- AUCINF [9, 17]: 9.272 µM·h
- Cmax [9, 17]: 416 nM
- T1/2 [9, 17]: 59 h
- Tmax [9, 17]: 0.5 h
- AUC0-336 [9, 18]: 1.996 µM·h
- Cmax [9, 18]: 8.4 nM
- T1/2 [9, 18]: 191 h
- AUC0-336 [9, 19]: 0.846 µM·h
- Cmax [9, 19]: 10 nM
- T1/2 [9, 19]: 61 h
- AUC0-24 [9, 20]: 4.366 µM·h
- AUC0-336 [9, 20]: 9.624 µM·h
- AUCINF [9, 20]: 9.904 µM·h
- CL [9, 20]: 1.8 mL/h/kg
- Cmax [9, 20]: 360 nM
- T1/2 [9, 20]: 78 h
- Tmax [9, 20]: 0.5 h
- Vss [9, 20]: 0.1 L/kg
- AUC0-336 [9, 21]: 2.275 µM·h
- Cmax [9, 21]: 10 nM
- tumor exposure of uMMAE higher than in serum [9, 22]: 240 fold
- tumor exposure of uMMAE higher than in the liver [9, 22]: 6.2 fold
- AUC0-336 [9, 23]: 2.686 µM·h
- Cmax [9, 23]: 32 nM
- T1/2 [9, 23]: 56 h
- AUC0-24 [9, 24]: 0.032 µM·h
- AUC0-336 [9, 24]: 0.07 µM·h
- AUCINF [9, 24]: 0.071 µM·h
- Cmax [9, 24]: 8 nM
- T1/2 [9, 24]: 37 h
- Tmax [9, 24]: 0.5 h
- AUC0-336 [9, 25]: 16.82 µM·h
- Cmax [9, 25]: 84 nM
- T1/2 [9, 25]: 70 h
- AUC0-24 ([10]; CAB, serum): 11.919 µM·h
- AUC0-168 ([10]; CAB, serum): 48.969 µM·h
- AUCINF ([10]; CAB, serum): 50.731 µM·h
- Cmax ([10]; CAB, serum): 1060 nM
- T1/2 ([10]; CAB, serum): 37 h
- AUC0-168 ([10]; CAB, tumor): 0.914 µM·h
- Cmax ([10]; CAB, tumor): 9.2 nM
- T1/2 ([10]; CAB, tumor): 58 h
- AUC0-24 ([10]; TAB, serum): 8.676 µM·h
- AUC0-168 ([10]; TAB, serum): 36.226 µM·h
- AUCINF ([10]; TAB, serum): 45.757 µM·h
- CL ([10]; TAB, serum): 0.6 mL/h/kg
- Cmax ([10]; TAB, serum): 721 nM
- T1/2 ([10]; TAB, serum): 74 h
- AUC0-168 ([10]; TAB, tumor): 3.968 µM·h
- Cmax ([10]; TAB, tumor): 63 nM
- T1/2 ([10]; TAB, tumor): 70 h
- AUC0-24 ([10]; uMMAE, serum): 0.031 µM·h
- AUC0-168 ([10]; uMMAE, serum): 0.084 µM·h
- AUCINF ([10]; uMMAE, serum): 0.095 µM·h
- T1/2 ([10]; uMMAE, serum): 50 h
- Tmax ([10]; uMMAE, serum): 4.8 min
- AUC0-168 ([10]; uMMAE, tumor): 6.001 µM·h
- Cmax ([10]; uMMAE, tumor): 50 nM
- T1/2 ([10]; uMMAE, tumor): 105 h
- ADC IC50 ([11]; BxPC3, 5-7 days): 0.62 µg/mL
- cytotoxic effect (in words) ([11]; BxPC3, high MUC1-SEA expressing): observed
- IC50 ([11]; read-out: Equivalent MMAE IC50, BxPC3, ADC expressed as equivalent MMAE): 12.6 nM
- tolerability (in words) [12]: tolerated well
- tolerability (in words) [13]: tolerated well
- MMAE released [14, 15]: < 5 nM
- MMAE release [14]: < 0.1%
